# Measurements taken from PubChem BioAssay (Tox21).
# The shares of active, inactive and inconclusive entries below differ from those in the screen. For part of these data: Where the call is inconclusive, the potency comes from a doubtful curve fit. Calls of active or inactive are those of the source. Unless noted, calls follow the shape of the dose curve; as a rule, active = well fitted curve in the direction sought with a large enough effect in the repeat runs; inconclusive = weak or mixed curves; inactive = no such curve, though single readings can be large; an effect the other way counts as inactive or inconclusive.
# Columns and labels:
# [1] = qHTS assay to identify small molecule antagonists of the progesterone receptor (PR) signaling pathway - cell viability counter screen (AID 1346798); also: nearly all actives have a fitted effect of over 50% in size; also: potency is read from the fitted curve at half-maximal effect
# How it was run: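 CellTiter-Glo luminescence; PR-UAS-bla HEK293T, 3,000 cells/well; compound + R5020, 16 hr, 37C/5% CO2; 30 min RT before read.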
# [2] = molecular target: Progesterone receptor (Homo sapiens) (UniProt P06401); assay: qHTS assay to identify small molecule antagonists of the progesterone receptor (PR) signaling pathway (AID 1346795; active = well fitted inhibition curve with a large enough effect in the signal ratio in the repeat runs, not every such curve was filed as active; inconclusive = weak or mixed curves; the % refers to the signal ratio; also: potency is read from the fitted curve at half-maximal effect; as to activity change, negative = inhibition: % is scaled to controls: 0 for no effect and ±100 for the full control effect); settings: PR-UAS-bla HEK293T, beta-lactamase FRET ratio, 16 h; activity change, negative = inhibition: at 92.4 µM (top of the series) unless noted
# How it was run: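 Fluorescence intensity measured 2 hr after adding beta-lactamase FRET substrate to PR-UAS-bla HEK293T cells that had been co-treated 16 hr with compound and 1 nM R5020 (final concentration) in 2% charcoal-stripped FBS.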
# [3] = qHTS assay to identify small molecule agonists of the TGF-beta/Smad signaling pathway (AID 1346859; active = well fitted activation curve with a large enough effect in the signal ratio in the repeat runs, not every such curve was filed as active; inconclusive = weak or mixed curves; the % refers to the signal ratio; also: potency is read from the fitted curve at half-maximal effect; as to activation: % is scaled to controls: 0 for no effect and ±100 for the full control effect); settings: SBE-bla HEK293T, TGF-beta/Smad beta-lactamase reporter, 5 h; activation: at 76.8 µM (top of the series) unless noted
# How it was run: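 After overnight seeding, SBE-bla HEK 293T cells are dosed with compounds in DMSO and kept 5 hr at 37 C, 5% CO2. LiveBLAzer-type FRET substrate is then applied for 2 hr at room temperature.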
# [4] = qHTS assay to identify small molecule agonists of the progesterone receptor (PR) signaling pathway - cell viability counter screen (AID 1346799; calls by dose curve; also: nearly all actives have a fitted effect of over 45% in size; also: potency is read from the fitted curve at half-maximal effect)
# How it was run: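 In parallel with the beta-lactamase readout, cytotoxicity toward PR-UAS-bla HEK293T cells was measured by CellTiter-Glo luminescence following 16 hr compound incubation in 2% charcoal-stripped FBS medium.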
# [5] = qHTS assay to identify small molecule agonists of the TGF-beta/Smad signaling pathway - cell viability counter screen (AID 1346829); also: top concentration of the series differs between compounds; % is scaled to controls: 0 for no effect and ±100 for the full control effect; nearly all actives have a fitted effect of over 45% in size
# How it was run: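 SBE-bla HEK 293T cells plated overnight, compound exposure 5 hr at 37 C. Viability read in the same wells by CellTiter-Glo luminescence after 30 min at room temperature, following the beta-lactamase read.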
# [6] = molecular target: Thyrotropin-releasing hormone receptor (Homo sapiens) (UniProt P34981); assay: qHTS assay to identify small molecule antagonists of the thyrotropin-releasing hormone receptor (TRHR) signaling pathway (AID 1346877; active = well fitted inhibition curve with a large enough effect in the repeat runs, not every such curve was filed as active; inconclusive = weak or mixed curves; also: potency is read from the fitted curve at half-maximal effect)
# How it was run: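 HEK293/TRHR cells, 18 h, 37 °C; Ca2+ dye 2 h; cpd 5 min RT; TRH 1 nM final; fluorescence read 3 min, 1 s intervals; 15 concs, triplicate.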
# Tags tell the direction and shape of the fitted curve or compound fluorescence and quenching.
# Chain of UniProt P06401 (P06401 whole entry, looked up): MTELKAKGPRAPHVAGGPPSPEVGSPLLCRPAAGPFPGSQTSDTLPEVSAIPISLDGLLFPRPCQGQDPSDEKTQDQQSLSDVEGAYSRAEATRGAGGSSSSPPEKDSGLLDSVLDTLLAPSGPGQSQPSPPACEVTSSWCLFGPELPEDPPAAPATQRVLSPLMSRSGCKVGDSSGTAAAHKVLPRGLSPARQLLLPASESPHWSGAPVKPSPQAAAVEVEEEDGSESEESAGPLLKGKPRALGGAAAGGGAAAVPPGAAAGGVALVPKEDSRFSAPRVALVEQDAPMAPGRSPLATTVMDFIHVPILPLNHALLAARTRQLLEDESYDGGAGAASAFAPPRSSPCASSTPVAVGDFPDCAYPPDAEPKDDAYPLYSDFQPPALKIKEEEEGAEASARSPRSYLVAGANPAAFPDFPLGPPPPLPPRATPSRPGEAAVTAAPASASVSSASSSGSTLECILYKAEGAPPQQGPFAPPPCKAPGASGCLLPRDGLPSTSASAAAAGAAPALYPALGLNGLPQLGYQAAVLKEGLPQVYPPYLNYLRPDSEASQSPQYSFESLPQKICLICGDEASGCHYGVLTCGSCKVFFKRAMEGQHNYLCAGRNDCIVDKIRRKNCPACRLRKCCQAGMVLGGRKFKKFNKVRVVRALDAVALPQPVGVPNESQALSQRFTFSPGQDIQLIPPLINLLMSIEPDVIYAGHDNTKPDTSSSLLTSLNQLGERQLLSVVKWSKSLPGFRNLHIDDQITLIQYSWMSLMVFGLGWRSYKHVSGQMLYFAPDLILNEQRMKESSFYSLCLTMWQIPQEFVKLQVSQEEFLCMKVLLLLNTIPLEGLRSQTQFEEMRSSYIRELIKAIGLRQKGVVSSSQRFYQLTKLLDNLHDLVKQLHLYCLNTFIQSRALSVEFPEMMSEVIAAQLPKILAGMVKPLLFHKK
# Chain of UniProt P34981 (P34981 whole entry, looked up): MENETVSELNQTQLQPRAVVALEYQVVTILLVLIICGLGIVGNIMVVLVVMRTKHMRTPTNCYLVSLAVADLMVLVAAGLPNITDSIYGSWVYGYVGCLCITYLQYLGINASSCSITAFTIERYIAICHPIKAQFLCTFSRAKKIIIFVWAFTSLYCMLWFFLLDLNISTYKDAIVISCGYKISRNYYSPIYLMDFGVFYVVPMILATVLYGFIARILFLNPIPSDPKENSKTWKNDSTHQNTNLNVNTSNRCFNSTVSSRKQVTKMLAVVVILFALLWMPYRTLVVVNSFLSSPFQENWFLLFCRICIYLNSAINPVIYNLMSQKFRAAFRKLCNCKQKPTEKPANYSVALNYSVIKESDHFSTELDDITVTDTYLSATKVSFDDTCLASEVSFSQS
smiles,measurement,setting,value
C1CNCCN1,Potency,[1],inconclusive: 70.6 µM [single point]
CC(C)(C)C1CCC(=O)CC1,Potency,[1],"inconclusive: 1.37 µM [cytotoxic, single point]"
CC(C)(C)OC(=O)c1ccccc1C(=O)O,Potency,[1],"inconclusive: 27.3 µM [rising, single point]"
O=C1c2ccccc2C(=O)N1CCl,Potency,[1],inactive
CCCOC(C)=O,Potency,[1],inactive
C=C(C)C(=O)OCCCCCCOC(=O)C(=C)C,Potency,[1],inactive
CCCCCCCCCCCCCCCS(=O)(=O)Oc1ccccc1,Potency,[1],inactive
OC1CCCCCCCCCCC1,Potency,[1],inactive
O=[N+]([O-])c1cc(Cl)c(Cl)c(Cl)c1Cl,"activity change, negative = inhibition",[2],inconclusive: -25.6%
same,Potency,[3],inconclusive: 48.8 µM
O=C(c1ccccc1)c1ccccc1O,Potency,[1],"inconclusive: 2.8 µM [cytotoxic, single point]"
CC(O)COc1ccccc1 (configuration not stated),Potency,[1],"inconclusive: 2.98 µM [cytotoxic, single point]"
CCC(C)CCCC(C)(C)O (configuration not stated),Potency,[1],inactive
C[C@]12CCC(=O)C=C1CC[C@@H]1[C@@H]2C(=O)C[C@@]2(C)[C@H]1CC[C@]2(O)C(=O)CO,Potency,[1],inactive
same,Potency,[4],"inconclusive: 21.7 µM [rising, partial curve, poor fit]"
C=C(C)C(=O)OCCCCCCCCCCOC(=O)C(=C)C,Potency,[1],"inconclusive: 0.611 µM [cytotoxic, single point]"
O=C(O)Cc1cc(I)c(Oc2ccc(O)c(I)c2)c(I)c1,Potency,[2],"inconclusive: 21.7 µM [rising, full curve]"
same,Potency,[3],"inconclusive: 21.9 µM [rising, partial curve]"
CC(Oc1cc(Cl)ccc1Cl)C(=O)O (configuration not stated),Potency,[1],inactive
CSc1ccc(/C=C2/C(C)=C(CC(=O)O)c3cc(F)ccc32)cc1,"activity change, negative = inhibition",[2],inconclusive: -30.8% [at 42.5 µM]
same,Potency,[3],"inconclusive: 1.2 µM [rising, full curve]"
CC[C@@H]1C[C@H](N(Cc2cc(C(F)(F)F)cc(C(F)(F)F)c2)C(C)=O)c2cc(C(F)(F)F)ccc2N1C(=O)OC(C)C,Potency,[1],inactive
O=C1c2ccccc2-c2ccccc21,Potency,[1],inactive
Cc1oc(=O)oc1CN1CCN(c2cc3c(cc2F)c(=O)c(C(=O)O)c2n3C(C)S2)CC1 (configuration not stated),Potency,[2],inactive
same,Potency,[3],"inconclusive: 8.49 µM [rising, partial curve, poor fit]"
C[Si](C)(C)Cl,"activity change, negative = inhibition",[2],inconclusive: 9.97%
same,Potency,[3],inactive
O=C1O[C@@H]2[C@@H](O)[C@H](O)O[C@@H]2[C@H]1O,Potency,[1],inactive
CCC(C)(C)CC,Potency,[1],inactive
Oc1ccccc1,Potency,[1],"inconclusive: 68.6 µM [rising, single point]"
CC(C)[N+](C)(C)CC(O)COc1cccc2ccccc12 (configuration not stated),Potency,[1],"inconclusive: 16.8 µM [cytotoxic, partial curve, poor fit]"
Cc1c(C(=O)O)cccc1[N+](=O)[O-],Potency,[1],"inconclusive: 78.2 µM [cytotoxic, single point]"
same,Potency,[4],inconclusive: 69.7 µM [cytotoxic]
CO[Si](CCCOCC1CO1)(OC)OC (configuration not stated),Potency,[1],"inconclusive: 24.1 µM [rising, single point]"
CCOC(=O)CC1(C)OCC(C)O1 (configuration not stated),Potency,[1],inactive
same,Potency,[4],inactive
CC(C)(C)CCCCCCOC(=O)c1ccccc1C(=O)OCCCCCCC(C)(C)C,Potency,[1],inactive
Cc1ccc(C)c(O)c1C,Potency,[1],"inconclusive: 38.6 µM [rising, partial curve, poor fit]"
same,Potency,[4],"inconclusive: 27.3 µM [rising, single point]"
CCCCCCCCCCCCCCCC(=O)OC[C@H](O)[C@H]1OC(=O)C(O)=C1O,Potency,[5],inactive
C=C[C@](C)(O)CC[C@@H]1[C@@]2(C)CCCC(C)(C)[C@@H]2CC[C@@]1(C)O,Potency,[6],"inconclusive: 21.3 µM [inhibitor, partial curve]"
CC(C)(C)C(=O)c1ccccc1,Potency,[5],inactive
